{
  "source": "PubChem BioAssay (EPA / NIEHS)",
  "key": {"[1]": {"target": "Peroxisome proliferator-activated receptor gamma (Homo sapiens) (UniProt P37231)", "sequence (P37231 whole entry, looked up)": "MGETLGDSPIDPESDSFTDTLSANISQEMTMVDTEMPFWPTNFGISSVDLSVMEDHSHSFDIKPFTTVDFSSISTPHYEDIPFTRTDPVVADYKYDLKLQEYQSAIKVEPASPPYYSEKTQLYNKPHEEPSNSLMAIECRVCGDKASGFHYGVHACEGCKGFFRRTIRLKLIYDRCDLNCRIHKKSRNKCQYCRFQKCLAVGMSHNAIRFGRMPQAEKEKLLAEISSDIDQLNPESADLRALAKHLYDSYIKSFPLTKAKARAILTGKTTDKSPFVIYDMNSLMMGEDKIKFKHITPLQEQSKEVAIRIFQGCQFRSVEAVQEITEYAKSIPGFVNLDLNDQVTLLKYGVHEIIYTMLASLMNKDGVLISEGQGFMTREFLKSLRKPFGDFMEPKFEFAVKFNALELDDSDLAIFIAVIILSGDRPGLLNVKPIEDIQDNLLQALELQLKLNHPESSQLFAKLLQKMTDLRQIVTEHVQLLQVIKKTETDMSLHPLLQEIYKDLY", "test": "ATG_PPARg_TRANS: Attagene TRANS-FACTORIAL HepG2 Assay for human Peroxisome Proliferator-activated Receptor-gamma (PPARg) (AID 2283007)", "procedure,_shortened": "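Twenty-four hours after chemical dosing of transiently transfected HepG2 cells, isolated RNA was converted to cDNA, reporter sequences amplified and 6-FAM-labelled, then HpaI-digested and analysed by capillary electrophoresis. Signal increase against DMSO was fitted.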"}, "[2]": {"read-out": "succinate dehydrogenase complex iron sulfur subunit B (SDHB), SDHB (gene 6390)", "test": "LTEA_HepaRG_SDHB: Life Technologies and Expression Analysis (LTEA) Assay for succinate dehydrogenase complex iron sulfur subunit B (SDHB) using HepaRG (AID 2283528; active = hit-call score of the fitted dose curve at least 0.9, where 1 is the maximum; inactive = score below 0.9)", "conditions": "actives raise or lower the signal; mRNA level, 48 h", "procedure,_shortened": "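SDHB transcript level read by TaqMan qRT-PCR, housekeeping-normalised (ACTB, GAPDH, POLR2A), after 48 h chemical treatment of plated HepaRG cells; eight concentrations top 100 uM, half-log steps, 0.5% DMSO, duplicates; fitted both directions against DMSO.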"}, "[3]": {"target": "human Retinoic Acid Receptor beta (RARb), RARB (gene 5915) (UniProt P10826)", "sequence (P10826 whole entry, looked up, the tested form may be a part)": "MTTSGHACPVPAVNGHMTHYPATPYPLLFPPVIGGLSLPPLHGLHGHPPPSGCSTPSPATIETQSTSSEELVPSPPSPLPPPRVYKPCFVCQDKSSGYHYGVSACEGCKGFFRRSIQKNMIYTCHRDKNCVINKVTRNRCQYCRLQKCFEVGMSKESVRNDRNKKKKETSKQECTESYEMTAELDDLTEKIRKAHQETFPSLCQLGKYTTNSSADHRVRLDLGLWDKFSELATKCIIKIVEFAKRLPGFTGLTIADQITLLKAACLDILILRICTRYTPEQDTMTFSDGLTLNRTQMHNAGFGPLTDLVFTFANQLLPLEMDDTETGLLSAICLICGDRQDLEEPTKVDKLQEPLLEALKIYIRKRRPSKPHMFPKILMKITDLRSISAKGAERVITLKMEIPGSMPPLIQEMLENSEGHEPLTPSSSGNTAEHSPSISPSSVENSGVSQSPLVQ", "test": "ATG_RARb_TRANS: Attagene TRANS-FACTORIAL HepG2 Assay for human Retinoic Acid Receptor beta (AID 2283004)", "procedure,_shortened": "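HepG2 cells transiently transfected with multiplexed GAL4-UAS reporter units expressing chimeric NR–Gal4 fusions; 24 h compound exposure. Reporter mRNA quantified by RT-PCR, 6-FAM labelling, HpaI digestion and capillary electrophoresis; gain-of-signal fitted against DMSO baseline.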"}, "[4]": {"target": "human Retinoid X Receptor beta (RXRb), RXRB (gene 6257) (UniProt P28702)", "sequence (P28702 whole entry, looked up)": "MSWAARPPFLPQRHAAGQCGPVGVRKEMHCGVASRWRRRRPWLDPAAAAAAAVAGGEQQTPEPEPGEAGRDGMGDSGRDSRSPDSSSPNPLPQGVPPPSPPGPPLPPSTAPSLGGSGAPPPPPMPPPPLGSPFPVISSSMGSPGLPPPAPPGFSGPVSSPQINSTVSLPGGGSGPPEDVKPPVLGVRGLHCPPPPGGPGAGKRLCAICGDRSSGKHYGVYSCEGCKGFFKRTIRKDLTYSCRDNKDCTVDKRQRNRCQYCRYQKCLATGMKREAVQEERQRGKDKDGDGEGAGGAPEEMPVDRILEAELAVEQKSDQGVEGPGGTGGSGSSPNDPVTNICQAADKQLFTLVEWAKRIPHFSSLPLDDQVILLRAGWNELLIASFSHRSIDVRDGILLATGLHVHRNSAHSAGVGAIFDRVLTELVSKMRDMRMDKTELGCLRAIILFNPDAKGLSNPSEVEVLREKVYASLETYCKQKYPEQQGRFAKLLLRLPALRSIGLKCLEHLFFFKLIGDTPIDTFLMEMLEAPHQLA", "test": "ATG_RXRb_TRANS: Attagene TRANS-FACTORIAL HepG2 Assay for human Retinoid X Receptor beta (RXRb) (AID 2283013)", "procedure,_shortened": "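Multiplexed TRANS reporter assay in HepG2; 24 h dosing; reporter mRNA by RT-PCR/CE fluorescence; gain-of-signal relative to DMSO.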"}, "[5]": {"target": "human RAR-related Orphan Receptor gamma (RORg), RORC (gene 6097) (UniProt P51449)", "sequence (P51449 whole entry, looked up, the tested form may be a part)": "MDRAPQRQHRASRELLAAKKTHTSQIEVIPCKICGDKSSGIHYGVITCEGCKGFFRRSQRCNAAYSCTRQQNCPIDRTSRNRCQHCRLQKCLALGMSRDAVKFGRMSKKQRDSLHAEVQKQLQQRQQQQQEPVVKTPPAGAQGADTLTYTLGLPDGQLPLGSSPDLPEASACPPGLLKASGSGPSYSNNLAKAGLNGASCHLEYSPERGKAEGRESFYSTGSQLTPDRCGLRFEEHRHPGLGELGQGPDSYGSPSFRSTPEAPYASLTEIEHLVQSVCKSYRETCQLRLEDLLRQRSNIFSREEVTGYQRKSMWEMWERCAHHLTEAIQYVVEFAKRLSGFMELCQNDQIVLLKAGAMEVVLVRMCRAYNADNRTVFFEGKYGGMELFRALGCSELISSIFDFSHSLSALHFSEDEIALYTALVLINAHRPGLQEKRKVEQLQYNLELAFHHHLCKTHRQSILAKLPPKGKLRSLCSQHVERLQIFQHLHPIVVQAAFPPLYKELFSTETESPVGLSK", "test": "ATG_RORg_TRANS: Attagene TRANS-FACTORIAL HepG2 Assay for human RAR-related Orphan Receptor gamma (RORg) (AID 2283011)", "procedure,_shortened": "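Readout: reporter transcript induction (RT-PCR, fluorescent primer extension, capillary electrophoresis) after 24 h compound exposure of transiently transfected HepG2 cells carrying a RORg-Gal4 chimera and GAL4-UAS reporters; DMSO served as baseline, with increasing signal fitted.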"}, "[6]": {"target": "Cellular tumor antigen p53 (Homo sapiens) (UniProt P04637)", "sequence (P04637 whole entry, looked up)": "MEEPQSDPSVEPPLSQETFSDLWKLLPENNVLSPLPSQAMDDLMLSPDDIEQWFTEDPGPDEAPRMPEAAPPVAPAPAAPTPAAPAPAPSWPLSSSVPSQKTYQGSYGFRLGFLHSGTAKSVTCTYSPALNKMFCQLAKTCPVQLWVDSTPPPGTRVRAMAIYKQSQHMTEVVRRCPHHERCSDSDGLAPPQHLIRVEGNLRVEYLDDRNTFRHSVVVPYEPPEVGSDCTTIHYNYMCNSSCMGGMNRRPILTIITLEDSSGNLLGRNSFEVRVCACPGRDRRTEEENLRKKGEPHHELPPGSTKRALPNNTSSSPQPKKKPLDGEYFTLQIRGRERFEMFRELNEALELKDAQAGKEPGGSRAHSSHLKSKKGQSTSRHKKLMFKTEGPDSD", "test": "TOX21_p53_BLA_p3_ratio: Tox21 HCT-116 p53 Agonism Beta-lactamase Assay, Ratio, Phase 3 (AID 2283596)", "procedure,_shortened": "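HCT116 p53-bla cells (4000/well) given compound in DMSO (217-fold dilution) after 5 h, incubated 16 h at 37C. CCF4-AM substrate 2 h at room temperature; 460/530 nm emission ratio, gain fitted against DMSO.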"}, "[7]": {"target": "Retinoic acid receptor RXR-alpha (Homo sapiens) (UniProt P19793)", "sequence (P19793 whole entry, looked up, the tested form may be a part)": "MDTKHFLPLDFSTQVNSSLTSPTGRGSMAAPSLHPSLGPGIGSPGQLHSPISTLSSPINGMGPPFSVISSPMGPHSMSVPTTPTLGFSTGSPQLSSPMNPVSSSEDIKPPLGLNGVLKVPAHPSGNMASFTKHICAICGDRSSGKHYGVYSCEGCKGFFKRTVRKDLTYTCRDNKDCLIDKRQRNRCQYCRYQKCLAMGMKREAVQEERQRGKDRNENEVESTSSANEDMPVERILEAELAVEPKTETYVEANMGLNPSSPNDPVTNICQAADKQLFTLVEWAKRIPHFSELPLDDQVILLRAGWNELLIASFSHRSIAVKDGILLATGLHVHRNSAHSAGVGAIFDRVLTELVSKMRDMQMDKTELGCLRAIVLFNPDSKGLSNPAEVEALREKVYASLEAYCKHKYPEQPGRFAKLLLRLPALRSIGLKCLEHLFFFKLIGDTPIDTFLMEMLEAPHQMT", "test": "ATG_RXRa_TRANS: Attagene TRANS-FACTORIAL HepG2 Assay for human Retinoid X Receptor alpha (RXRa) (AID 2283012)", "procedure,_shortened": "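Cells (HepG2) carried transiently transfected GAL4-responsive reporter units. Following a 24 h chemical incubation, reporter mRNA induction was read via RT-PCR fragment analysis; DMSO served as negative control and baseline.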"}, "[8]": {"read-out": "Urokinase-type plasminogen activator receptor (uPAR), PLAUR (gene 5329)", "test": "BSK_4H_uPAR: BioMAP Diversity Plus: 4H Assay for Urokinase-type plasminogen activator receptor (uPAR) Biomarker Activity (AID 2283030; active = hit-call score of the fitted dose curve at least 0.9, where 1 is the maximum; inactive = score below 0.9)", "conditions": "actives raise or lower the signal; primary human endothelial cells (HUVEC)", "procedure,_shortened": "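Primary human umbilical vein endothelial cells were exposed to chemical for 24 h before cell-surface uPAR was quantified by ELISA. Activity was fitted bidirectionally against the DMSO negative control baseline.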"}, "[9]": {"target": "rat CYP2C13, Cyp2c13 (gene 171521) (UniProt P20814)", "sequence (P20814 whole entry, looked up)": "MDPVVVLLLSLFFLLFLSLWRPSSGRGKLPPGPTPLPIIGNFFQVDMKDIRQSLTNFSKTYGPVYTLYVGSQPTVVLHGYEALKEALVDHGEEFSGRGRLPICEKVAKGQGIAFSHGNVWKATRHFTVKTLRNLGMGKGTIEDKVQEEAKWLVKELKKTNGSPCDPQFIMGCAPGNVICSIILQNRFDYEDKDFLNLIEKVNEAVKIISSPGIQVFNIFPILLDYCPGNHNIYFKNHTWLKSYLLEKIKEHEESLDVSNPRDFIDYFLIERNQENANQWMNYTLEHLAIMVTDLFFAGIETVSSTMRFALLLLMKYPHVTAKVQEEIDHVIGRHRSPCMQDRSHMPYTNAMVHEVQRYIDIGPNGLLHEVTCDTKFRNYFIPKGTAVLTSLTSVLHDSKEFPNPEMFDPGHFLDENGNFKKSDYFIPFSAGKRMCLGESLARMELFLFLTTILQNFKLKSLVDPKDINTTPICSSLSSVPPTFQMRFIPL", "test": "NVS_ADME_rCYP2C13: NovaScreen (NVS) CYP450-related Enzyme Activity (ADME) Assay for rat CYP2C13 (AID 2283121)"}, "[10]": {"target": "human Phosphodiesterase 5 (PDE5), PDE5A (gene 8654) (UniProt O76074)", "test": "NVS_ENZ_hPDE5: NovaScreen (NVS) Enzymatic Assay for human Phosphodiesterase 5 (PDE5) (AID 2283194)", "method": "NVS_ENZ_hPDE5 is a biochemical, single-readout assay that uses extracted gene-proteins in a cell-free assay. Measurements were taken 1 hour after chemical dosing in a 384-well plate.NVS_ENZ_hPDE5 is one of one assay component(s) measured or calculated from the NVS_ENZ_hPDE5 assay. It is designed to make measurements of enzyme activity, a form of enzyme reporter, as detected with fluorescence intensity signals by Fluorescence and electrophoretic mobility shift technology.Data from the assay component NVS_ENZ_hPDE5 was analyzed into 1 assay endpoint. This assay endpoint, NVS_ENZ_hPDE5, was analyzed in the positive analysis fitting direction relative to DMSO as the negative control and baseline of activity. Using a type of enzyme reporter, loss-of-signal activity can be used to understand changes in the enzymatic activity as they relate to the gene PDE5A. Furthermore, this assay endpoint can be referred to as a primary readout, because this assay has produced multiple assay endpoints where this one serves a enzymatic activity function. To generalize the intended target to other relatable targets, this assay endpoint is annotated to the esterase intended target family, where the subfamily is phosphodiesterase. […]"}, "PGR (gene 5241)": {"target": "PGR (gene 5241) (UniProt P06401)", "sequence (P06401 whole entry, looked up)": "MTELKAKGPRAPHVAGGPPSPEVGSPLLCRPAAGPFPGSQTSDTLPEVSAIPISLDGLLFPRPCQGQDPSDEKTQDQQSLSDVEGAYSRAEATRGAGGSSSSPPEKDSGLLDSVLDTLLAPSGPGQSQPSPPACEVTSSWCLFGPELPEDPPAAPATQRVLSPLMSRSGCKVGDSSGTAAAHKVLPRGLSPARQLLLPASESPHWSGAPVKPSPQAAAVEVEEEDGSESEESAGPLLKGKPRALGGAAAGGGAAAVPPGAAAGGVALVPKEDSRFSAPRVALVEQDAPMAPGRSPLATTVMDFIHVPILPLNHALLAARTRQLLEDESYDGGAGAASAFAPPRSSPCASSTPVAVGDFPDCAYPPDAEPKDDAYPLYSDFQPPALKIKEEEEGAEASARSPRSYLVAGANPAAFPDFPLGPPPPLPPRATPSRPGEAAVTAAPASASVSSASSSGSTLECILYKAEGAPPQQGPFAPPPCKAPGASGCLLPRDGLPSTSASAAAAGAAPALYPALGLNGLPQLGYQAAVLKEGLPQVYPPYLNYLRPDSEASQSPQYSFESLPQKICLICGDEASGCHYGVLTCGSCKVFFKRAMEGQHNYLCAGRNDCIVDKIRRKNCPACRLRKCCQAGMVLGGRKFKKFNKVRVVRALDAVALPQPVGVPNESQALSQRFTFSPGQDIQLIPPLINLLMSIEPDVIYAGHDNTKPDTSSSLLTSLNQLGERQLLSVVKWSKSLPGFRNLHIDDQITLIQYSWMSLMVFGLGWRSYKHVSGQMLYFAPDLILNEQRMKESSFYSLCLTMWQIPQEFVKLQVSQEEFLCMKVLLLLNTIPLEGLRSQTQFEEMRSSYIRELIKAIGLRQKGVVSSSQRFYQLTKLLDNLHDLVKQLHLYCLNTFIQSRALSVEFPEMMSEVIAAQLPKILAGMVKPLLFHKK", "test": "NVS_NR_hPR: NovaScreen (NVS) Nuclear Receptor Binding Assay for human Progestron Receptor (PR) (AID 2283360);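 note: active means loss of bound radioligand signal versus DMSO baseline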", "procedure,_shortened": "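T47D-derived receptor preparation, cell-free, with tritiated or iodinated radioligand displacement measured by scintillation 18 h post-dosing. Single 25 uM duplicate screen, then concentration series; signal loss relative to DMSO.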"}, "[11]": {"read-out": "ABC Transporter (ABCB11), ABCB11 (gene 8647)", "test": "LTEA_HepaRG_ABCB11: Life Technologies and Expression Analysis (LTEA) Assay for ABC Transporter (ABCB11) using HepaRG (AID 2283463; active = hit-call score of the fitted dose curve at least 0.9, where 1 is the maximum; inactive = score below 0.9)", "conditions": "actives raise or lower the signal; mRNA level, 48 h", "procedure,_shortened": "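Differentiated human HepaRG cells in serum-free induction medium, dosed in duplicate for 48 h. Eight-point half-log series from 100 uM in 0.5% DMSO; ABCB11 mRNA by qRT-PCR, normalized to ACTB, GAPDH, POLR2A, fitted bidirectionally versus DMSO.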"}, "[12]": {"read-out": "Apolipoprotein A-V (APOA5) gene, APOA5 (gene 116519)", "test": "LTEA_HepaRG_APOA5: Life Technologies and Expression Analysis (LTEA) Assay for Apolipoprotein A-V (APOA5) gene using HepaRG (AID 2283474; active = hit-call score of the fitted dose curve at least 0.9, where 1 is the maximum; inactive = score below 0.9)", "conditions": "actives raise or lower the signal; mRNA level, 48 h", "procedure,_shortened": "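Differentiated human HepaRG cells were exposed in duplicate for 48 h to eight half-log concentrations from 100 uM in 0.5% DMSO. APOA5 mRNA was quantified by TaqMan qRT-PCR, normalized to ACTB, GAPDH and POLR2A, and fitted bidirectionally against DMSO.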"}, "[13]": {"read-out": "DNA damage-inducible transcript 3 (DDIT3), DDIT3 (gene 1649)", "test": "LTEA_HepaRG_DDIT3: Life Technologies and Expression Analysis (LTEA) Assay for DNA damage-inducible transcript 3 (DDIT3) using HepaRG (AID 2283488; active = hit-call score of the fitted dose curve at least 0.9, where 1 is the maximum; inactive = score below 0.9)", "conditions": "actives raise or lower the signal; mRNA level, 48 h", "procedure,_shortened": "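Changes in DDIT3 transcript, in either direction relative to 0.5% DMSO vehicle, were quantified by TaqMan qRT-PCR after 48 h chemical exposure of HepaRG cells at 8 concentrations, maximum 100 uM.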"}, "[14]": {"read-out": "Glutathione S-Transferase (GSTA2), GSTA2 (gene 2939)", "test": "LTEA_HepaRG_GSTA2: Life Technologies and Expression Analysis (LTEA) Assay for Glutathione S-Transferase (GSTA2) using HepaRG (AID 2283497; active = hit-call score of the fitted dose curve at least 0.9, where 1 is the maximum; inactive = score below 0.9)", "conditions": "actives raise or lower the signal; mRNA level, 48 h", "procedure,_shortened": "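Differentiated human HepaRG cells were exposed in duplicate for 48 h in serum-free induction medium, 8 points from 100 uM top in half-log steps, 0.5% DMSO. GSTA2 mRNA was measured by TaqMan qRT-PCR, normalized to ACTB, GAPDH and POLR2A; bidirectional fit versus DMSO.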"}, "[15]": {"test": "LTEA_HepaRG_LDH_cytotoxicity: Cytotoxicity Assessment in the Life Technologies and Expression Analysis (LTEA) Assay (AID 2283563);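 note: LDH activity released into spent culture medium as a marker of cell death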", "procedure,_shortened": "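Differentiated human HepaRG cells, plated 48 h beforehand, were switched to serum-free induction medium and exposed for 48 h to eight half-log concentrations (top 100 uM) in 0.5% DMSO. LDH was measured in spent medium; activity was fitted relative to DMSO vehicle.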"}, "[16]": {"read-out": "sulfotransferase (SULT2A), SULT2A1 (gene 6822)", "test": "CLD_SULT2A_24hr: CellzDirect (CLD) Gene Expression Assay for sulfotransferase (SULT2A) at 24 hours (AID 2283694)", "procedure,_shortened": "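Primary human hepatocytes from two donor preparations were dosed daily with fresh solutions, vehicle 0.2% DMSO. At 24 h, lysates went to quantitative nuclease protection (qNPA) with S1 digestion and chemiluminescent readout. Cytotoxicity was annotated from phase-contrast morphology.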"}, "[17]": {"target": "zebrafish Thyroid Hormone Receptor alpha (TRa), thraa (gene 30670) (UniProt Q98867)", "sequence (Q98867 whole entry, looked up, the tested form may be a part)": "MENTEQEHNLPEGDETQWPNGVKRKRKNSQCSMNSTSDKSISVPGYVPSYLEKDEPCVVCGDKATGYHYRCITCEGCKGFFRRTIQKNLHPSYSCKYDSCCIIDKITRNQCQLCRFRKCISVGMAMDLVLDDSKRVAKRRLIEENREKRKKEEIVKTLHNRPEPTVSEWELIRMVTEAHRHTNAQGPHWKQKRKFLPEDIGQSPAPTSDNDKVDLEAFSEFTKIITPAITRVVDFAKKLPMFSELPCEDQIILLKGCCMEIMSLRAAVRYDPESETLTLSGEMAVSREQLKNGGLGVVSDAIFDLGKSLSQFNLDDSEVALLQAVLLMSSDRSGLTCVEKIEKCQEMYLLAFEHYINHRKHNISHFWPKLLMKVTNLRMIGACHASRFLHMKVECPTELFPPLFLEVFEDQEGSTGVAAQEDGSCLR", "test": "ATG_zfTRa_XSP2: Attagene TRANS-FACTORIAL Multi-Species (XSP1) HepG2 Assay for zebrafish Thyroid Hormone Receptor alpha (TRa) (AID 2283832)", "procedure,_shortened": "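Chimeric receptor-Gal4 activity was assessed in transfected human liver HepG2 cells 24 h after dosing, using reporter transcript levels detected by RT-PCR and capillary electrophoresis. DMSO served as baseline.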"}},
  "note": "For some of these results: This list holds what a sample rich in hits left over. Records with an inconclusive call do not appear. The list shows a part of the results, in another mix than the full data. Activity calls are given as the source filed them. Rule for the calls, unless noted: active = hit-call score of the fitted dose curve at least 0.9, where 1 is the maximum; inconclusive = response in the unintended direction; inactive = score below 0.9.",
  "data": [
    {"smiles": "CCCCC(CC)COP(=O)(OCC(CC)CCCC)OCC(CC)CCCC", "note": "(centres undefined)", "values": [
      {"measurement": "AC50", "setting": "[1]", "value": "active: 3.35 µM"},
      {"measurement": "outcome", "setting": "[2]", "value": "inactive"}
    ]},
    {"smiles": "[Cl][In]([Cl])[Cl]", "values": [
      {"measurement": "outcome", "setting": "[3]", "value": "inactive"}
    ]},
    {"smiles": "C=C(C)C(=O)OCC(CC)(COC(=O)C(=C)C)COC(=O)C(=C)C", "values": [
      {"measurement": "outcome", "setting": "[4]", "value": "inactive"}
    ]},
    {"smiles": "O=CCCCC=O", "values": [
      {"measurement": "outcome", "setting": "[5]", "value": "inactive"},
      {"measurement": "AC50", "setting": "[6]", "value": "active: 80.3 µM"}
    ]},
    {"smiles": "C[C@H]1C[C@@H](O)CC(C)(C)C1", "values": [
      {"measurement": "outcome", "setting": "[4]", "value": "inactive"}
    ]},
    {"smiles": "C=CCOC(Cn1ccnc1)c1ccc(Cl)cc1Cl", "note": "(centres undefined)", "values": [
      {"measurement": "outcome", "setting": "[7]", "value": "inactive"},
      {"measurement": "outcome", "setting": "[8]", "value": "inactive"},
      {"measurement": "AC50", "setting": "[9]", "value": "active: 300 nM"},
      {"measurement": "AC50", "setting": "[10]", "value": "active: 16.8 µM"},
      {"measurement": "AC50", "setting": "PGR (gene 5241)", "value": "active: 25 µM"},
      {"measurement": "AC50", "setting": "[11]", "value": "active: 28.7 µM"},
      {"measurement": "AC50", "setting": "[12]", "value": "active: 32.7 µM"},
      {"measurement": "AC50", "setting": "[13]", "value": "active: 17.8 µM"},
      {"measurement": "AC50", "setting": "[14]", "value": "active: 34.6 µM"},
      {"measurement": "AC50", "setting": "[15]", "value": "active: 61.6 µM"},
      {"measurement": "outcome", "setting": "[16]", "value": "inactive"},
      {"measurement": "outcome", "setting": "[17]", "value": "inactive"}
    ]}
  ]
}
